Results are given in words; binding and its absence hold for the method and conditions named. In cells and extracts the contact can be indirect. Some entries that bind do so weakly or less than the wild type. For part of these data: Sequences can lack the tags named with a protein. Each block holds one substance with its values, some of them ahead of it.
Assays:
[1] = target: T1, GST::Oa1-i3 fusion protein (third intracellular loop of mouse Oa1, residues 213-248) (mouse) (UniProt P70259); test: pull-down; about 1 ug GST or GST-fusion protein on glutathione agarose resin, incubated with 10 ul 35S-labeled in-vitro translated Gα protein; 50 mM Tris pH 7.5, 100 mM NaCl, 0.5% Triton X-100; 2 h at room temperature; SDS-PAGE and autoradiography; only the target purified
T1 sequence: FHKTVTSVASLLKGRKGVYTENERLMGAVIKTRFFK

Protein sequences, listed by entry. Tags and fused reporters are not part of them.
UniProt P51810: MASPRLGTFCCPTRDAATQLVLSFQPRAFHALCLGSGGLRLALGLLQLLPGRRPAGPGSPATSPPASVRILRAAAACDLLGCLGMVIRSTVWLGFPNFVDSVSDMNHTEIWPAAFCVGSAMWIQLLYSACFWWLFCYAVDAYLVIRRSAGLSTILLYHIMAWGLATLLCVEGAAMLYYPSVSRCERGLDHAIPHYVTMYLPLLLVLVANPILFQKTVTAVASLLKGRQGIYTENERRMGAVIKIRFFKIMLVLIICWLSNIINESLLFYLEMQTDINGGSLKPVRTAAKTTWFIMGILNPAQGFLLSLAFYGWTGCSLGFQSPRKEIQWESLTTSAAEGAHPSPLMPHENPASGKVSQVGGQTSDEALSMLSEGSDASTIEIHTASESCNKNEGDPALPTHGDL
UniProt P08754: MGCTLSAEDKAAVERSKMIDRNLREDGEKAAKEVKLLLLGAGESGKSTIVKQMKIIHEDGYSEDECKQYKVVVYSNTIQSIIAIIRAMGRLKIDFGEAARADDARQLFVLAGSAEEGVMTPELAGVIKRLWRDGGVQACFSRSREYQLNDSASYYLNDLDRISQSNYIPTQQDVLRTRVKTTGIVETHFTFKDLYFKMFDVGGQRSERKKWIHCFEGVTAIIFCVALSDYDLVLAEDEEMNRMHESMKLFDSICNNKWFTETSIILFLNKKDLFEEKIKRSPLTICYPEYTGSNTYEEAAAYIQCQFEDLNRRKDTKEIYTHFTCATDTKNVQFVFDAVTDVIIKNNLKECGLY
UniProt P63096: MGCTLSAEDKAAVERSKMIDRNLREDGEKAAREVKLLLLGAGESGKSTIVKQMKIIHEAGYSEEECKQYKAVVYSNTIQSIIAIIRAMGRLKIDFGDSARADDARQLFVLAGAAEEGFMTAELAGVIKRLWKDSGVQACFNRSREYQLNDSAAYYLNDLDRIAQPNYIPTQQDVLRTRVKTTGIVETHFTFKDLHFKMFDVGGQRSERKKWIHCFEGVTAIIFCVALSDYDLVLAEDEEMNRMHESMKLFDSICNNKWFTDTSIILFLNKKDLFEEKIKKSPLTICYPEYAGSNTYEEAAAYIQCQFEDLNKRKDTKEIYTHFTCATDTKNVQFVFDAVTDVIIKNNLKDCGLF
UniProt P50148: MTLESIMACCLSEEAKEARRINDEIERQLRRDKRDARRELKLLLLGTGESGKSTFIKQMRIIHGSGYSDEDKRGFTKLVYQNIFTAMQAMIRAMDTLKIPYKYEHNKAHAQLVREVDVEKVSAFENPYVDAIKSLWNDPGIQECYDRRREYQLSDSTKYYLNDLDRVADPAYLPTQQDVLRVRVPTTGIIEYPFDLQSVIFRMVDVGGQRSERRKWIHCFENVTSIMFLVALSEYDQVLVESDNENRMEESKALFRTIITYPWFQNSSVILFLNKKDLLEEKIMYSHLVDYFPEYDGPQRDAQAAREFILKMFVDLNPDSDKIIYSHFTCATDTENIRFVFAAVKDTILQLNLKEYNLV
UniProt P04899: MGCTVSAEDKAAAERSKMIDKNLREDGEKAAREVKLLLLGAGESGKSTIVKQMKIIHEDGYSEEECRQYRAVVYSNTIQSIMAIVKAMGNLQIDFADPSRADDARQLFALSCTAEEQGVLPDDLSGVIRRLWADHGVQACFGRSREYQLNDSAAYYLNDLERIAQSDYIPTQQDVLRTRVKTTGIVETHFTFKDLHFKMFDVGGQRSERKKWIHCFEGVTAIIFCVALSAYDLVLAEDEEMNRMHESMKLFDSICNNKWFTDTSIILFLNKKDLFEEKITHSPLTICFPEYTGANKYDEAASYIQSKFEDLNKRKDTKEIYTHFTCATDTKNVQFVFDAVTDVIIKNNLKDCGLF
UniProt P63092: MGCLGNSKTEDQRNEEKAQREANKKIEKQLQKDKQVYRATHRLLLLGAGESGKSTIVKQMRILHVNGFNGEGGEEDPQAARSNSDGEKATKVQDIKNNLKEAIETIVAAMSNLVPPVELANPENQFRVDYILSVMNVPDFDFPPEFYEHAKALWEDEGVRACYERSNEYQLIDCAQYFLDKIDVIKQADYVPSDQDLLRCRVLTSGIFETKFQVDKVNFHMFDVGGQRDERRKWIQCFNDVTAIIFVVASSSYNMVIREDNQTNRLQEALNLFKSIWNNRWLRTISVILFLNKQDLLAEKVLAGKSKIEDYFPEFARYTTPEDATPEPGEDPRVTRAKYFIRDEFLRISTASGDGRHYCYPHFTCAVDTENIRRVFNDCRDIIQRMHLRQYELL

[2] = target: T2, GST::Oa1-CT fusion protein (carboxy-terminal tail of mouse Oa1, residues 314-405) (mouse) (UniProt P70259); test: as above
T2 sequence: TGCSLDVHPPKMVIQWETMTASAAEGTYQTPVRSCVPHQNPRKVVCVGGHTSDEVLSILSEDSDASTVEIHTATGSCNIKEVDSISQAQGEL

[3] = target: OA1 (human ocular albinism type 1 G-protein-coupled receptor), endogenous in RPE (human (endogenous in RPE)) (UniProt P51810); test: co-IP; adult human RPE lysate in RIPA buffer; IP with rabbit polyclonal anti-OA1 and blot with anti-Gαi3, and the reciprocal IP with anti-Gαi3 and blot with anti-OA1; pre-immune serum as control; protein G-Sepharose
[4] = target: Gαi3 (guanine nucleotide binding protein, alpha inhibiting activity polypeptide 3), endogenous in human RPE (human (endogenous in RPE)) (UniProt P08754); test: as above

Substance: 35S-labeled Gαi1, in-vitro transcribed and translated (from UniProt P63096 1-354)
binding [1]: no binding
binding [2]: no binding

Substance: 35S-labeled Gαq, in-vitro transcribed and translated (from UniProt P50148 1-359)
binding [1]: no binding
binding [2]: no binding

Substance: OA1 (human ocular albinism type 1 G-protein-coupled receptor), endogenous in RPE (from UniProt P51810 1-404)
binding [4]: binds

Other lines, results leading:

binding [1]: no binding
binding [2]: no binding
Substance: 35S-labeled Gαi2, in-vitro transcribed and translated (from UniProt P04899 1-355)

binding [1]: binds
binding [2]: binds
Substance: 35S-labeled Gαi3, in-vitro transcribed and translated (from UniProt P08754 1-354)

binding [1]: no binding
binding [2]: no binding
Substance: 35S-labeled Gαs, in-vitro transcribed and translated (from UniProt P63092 1-394)

binding [3]: binds
Substance: Gαi3 (guanine nucleotide binding protein, alpha inhibiting activity polypeptide 3), endogenous in human RPE (from UniProt P08754 1-354)
